This note sets out measurements from the RNAGym collection of RNA variant scans (doi:10.7554/elife.90254).

The source gives no read counts; variants with many changes may rest on few reads.

First the molecules themselves.
B1: OR4K15 (parent)
chain: GUUAACGGUCAUAGGCCAUGGAAACUAGGAGCACCAUUUCGCUGCCAGUGAAGAAAUGAACAAAGAAAAUCUGGGCCAGGCAGGCAUCAAAAGAAAUAGUCUUGCGCUCAACCAGAAAGUCUGUAAUCAUUUUAAGGGUA

The variants in the series derive from B1. Kind of series: self-cleavage, relative activity (ratio to wild type); higher = more cleavage; in vitro, sequencing; the parent is a self-cleaving ribozyme.
GUUAACGGUCAUAGGCCAUGGAGACUAGGAGCACCAUUUCGCUGCCAGUGAAGAAAUGAACAAAGAAAACCUGGGCCAGGCAGGCAUCAAAAGAAAUAGUCUUGCGCUCAACCAGAAAGUCUGUGAUCAUUUUAAGGGUA [A23G U70C A125G]: the self-cleavage was found to be 0.1.
To GUUAACGGUCAUAGGCCAUGGAGACUAGGAGCACCAUUUCGCUGCCAGUGAAGAAAUGAACAAAGAAAACCUGGGCCAGGCAGGCAUCAAAAGAAAUAGUCUUGCGCUCAACCAGUAAGUCUGUAAUCAUUUUAAGGGUA [A23G U70C A116U] belongs 0.19.
Turning to GUUAACGGUCAUAGGCCAUGGAGACUAGGAGCACCAUUUCGCCGCCAGUGAAGAAAUGAACAAAGAAAAUCUGGGCCAGGCAGGCAUCAAAAGAAAUAGUCUUGCGCUCAAACAGAGAGUCUGUAAUCAUUUUAAGGGUA [A23G U43C C112A A117G], the self-cleavage was 0.03.
For GUUAACGGUCAUAGGCCAUGGAGACUAGGAGCACCACUUCGCUGCCGGUGAAGAAGUGAACAAAGAAAAUCUGGGCCAGGCAGGCAUCAAAAGAAAUAGUCUUGCGCUCAACCAGAAAGUCUGUAAUCAUUUUAAGGGUA [A23G U37C A47G A56G] the value was 0.92.
For GUUAACGGUCAUAGGCCAUGGAGACUAGGAGCACCAUUUCGCUGCCAGAGAAGAAAUGAACAAAGAAAAUCUGGGCCAGGCAGGCAUCAAAAGAAGUAGUCUUGCGCUCAACCAGAAAGUCUGUAGUCAUUUUAAGGGUA [A23G U49A A96G A126G] the value was 1.13.
To GUUAACGGUCAUAGGCCAUGGAGACUAGGAGCACCAUUUCGCCGCCAGUGAAGAAAUGAACUAGGAAAAUCUGGGCCAGGCAGGCAUCAAAAGAAAUAGUCUUGCGCUCAACCAGAAAGUCUGUAAUCAUUUUAAGGGUA [A23G U43C A62U A64G] belongs 1.72; to GUUAACGGUCAUAGGCCAUGGAGACUAGGAGCACCAUUUCGCCGCCAGUGAAGAAAUGAACAAAGAAAACCUGGGCCAGGCAGGCAUCAAAAGAAAUAGUCUUGCGCUCAACCAGAAAGUCUGUAAUCAUUUUAAGGGUA [A23G U43C U70C], 0.73; to GUUAACGGUCAUAGGCCAUGGAGACUAGGAGCACCAUUCCGCCGCCAGUGAGGAAAUGAACAAAGAAAAUCUGGGCCAGGCAGGCAUCAAAAGAAAUAGUCUUGCGCUCAACCUGAAAGUCUGUAAUCAUUUUAAGGGUA [A23G U39C U43C A52G A114U], 0.02.
On to GUUAACGGUCAUAGGCCAUGGAGACUAGGAGCACCAUAUCGCUGCCAGUGAAGAAAUGAACAAAGAAAAUCUGGGCCAGGCAGGCAUCAAAAGAAAUAGUCUUGCGCUCAACCAGGAAGUCUGUAAUCAUUUUAAGGGUA [A23G U38A A116G], for which the self-cleavage was found to be 0.94.
To GUUAACGGUCAUAGGCCAUGGAGACUAGGAGCACCAUUACGCUGCCAGUGAAGAAAUGAACAAGGAAAAUCUGGGCCAGGCAGGCAUCAAAAGAAAUAGUCUUGCGCUCAACCAGAAAGUCUGUAAUCAUUUUAAGGGUA [A23G U39A A64G] belongs 0.7; to GUUAACGGUCAUAGGCCAUGGAGACUAGGAGCACCAUUUCGCGGCCAGUGAAGAAAUGAACAAAGAAAAUCUGGGCCAGGCAGGCAUCAAAGGAAAUAGUCUGGCGCUCAACCAGAAAGUCUGUAAUCAUUUUAAGGGUA [A23G U43G A92G U103G], 0.07.
To GUUAACGGUCAUAGGCCAUGGAGACUAGGAGCACCAUCUCGCUGCCAGUGAAGAAAUGAACAAAGAAAAUCUGGGCCAGGCAGGCAUCAAGAGAAAUAGUCUUGCGCUCAACCAGAAAGUCUGUAAUCAUUUUAAGGGUA [A23G U38C A91G] belongs 0.53; to GUUAACGGUCAUAGGCCAUGGAGACUAGGAGCACCACUUCGCUGCCAGUGAAGAAAUGAACAAAGAAAAUCUGGGCCUGGCAGGCAUCAAAAGAAAUAGUCUUGCGCUCAACCAGAAAGUCUGUAAUCAUCUUAAGGGUA [A23G U37C A78U U131C], 0.37.
To GUUAACGGUCAUAGGCCAUGGAGACUAGGAGCACCAUAUCGCUGCCAGUGAAGAAAUGAACAAAGAAAAUCUGGGCCAGGCAGGCAUCAAAAGAAAUAGUCUUGCGCUCAACCAGAACGUCUGUAAUCAUUUUAAGGGUA [A23G U38A A118C] belongs 0.84; to GUUAACGGUCAUAGGCCAUGGAGACUAGGAGCACCAUUUCGCUGCCAGUGAAGAAAUGAACAAAGAAAAUCCGGGCCAGGCAGGCAUCAAAAGAAAUAGUCUUGCGCUCAACCAGAAGGCCUGUAAUCAUUUUAAGGGUA [A23G U72C A118G U120C], 0.02.
For the variant GUUAACGGUCAUAGGCCAUGGAGACUAGGAGCACCAUUUCGCUGCCAGCGAAGAAAUGAACAAAGAAAAUCUGGGCCAGGCAGGCACCAAAAGAAAUAGUCUUGCGCUCAACCAGAAAGUCCGUAAUCAUUUUAAGGGUA [A23G U49C U87C U122C], the self-cleavage came to 0.18.
In the case of GUUAACGGUCAUAGGCCAUGGAGACUAGGAGCACCAUUUCGCUGCCAGGGAAGAAAUGAACAAAGAAAAUCUGGGCCAGGCAGGCAUCAAAAGAGAUAGCCAUGCGCCCAACCAGAGAGUCUGUAAUCCUUUUAAGAGUA [A23G U49G A95G U100C U102A U108C A117G A129C G137A], the self-cleavage is 0.
For GUUAACGGUCAUAGGCCAUGGAGACUAGGAGCACCAUUCCGCUGCCAGUGAAGAAAUGAACAAAGAAAAUCUGGUCCAGGCAGGCAUCAAAAGAAAUAGUCUUGCGCUCAACCAGAAAGUCUGUAAUCAUUUUAAGGGUA [A23G U39C G75U] the value was 0.18; for GUUAACGGUCAUAGGCCAUGGAGACUAGGAGCACCAUAUCGCUGCCGGUGAAGAAGUGAACAAAGAAAAUCUGGGCCAGGCAGGCAUCAAUAGAAAUAGUCUUGCGCUCAACCAGAAAGUCUGUAAUCAUUUUAAGGGUA [A23G U38A A47G A56G A91U], 0.52.
On to GUUAACGGUCAUAGGCCAUGGAGACUAGGAGCACCAUUUCGCCGCCAGUGAAGAAGUGAACAAAGAAAAUCUGGGCCAGGCAGGCAUCAAAAGAAAUAGUCUUGCGCUCAACCAGAAAGUCUGUAACCAUUUUAAGGGUA [A23G U43C A56G U127C], for which the self-cleavage came out at 0.45.
For GUUAACGGUCAUAGGCCAUGGAGACUAGGAGCACCAUUUCGCUGCCAGCGAAGAAAUGAACAGAGAAAAUCUGGGCCAGGCAGGCAUCAAAAGAAAUAGUCUUGCGCUCAACCAGAAAGUCUGUAAUCAUUUUAAGGAUA [A23G U49C A63G G138A] the value was 1.57; for GUUAACGGUCAUAGGCCAUGGAGACUAGGAGCACCAUCUCGCUGCCAGUGAAGAAAUGAACAAAGAAAUUCUGGGCCAGGCAGGCAUCAAAAGAAAUAGUCUUGCGCUCAACCAGAAAGUCUGUAAUCAUUUUAAGGGUG [A23G U38C A69U A140G], 1.02; for GUUAACGGUCAUAGGCCAUGGAGACUAGGAGCACCAUUUCGCGGCCAGUGAAGAAAUGAACAAAGAAAAUCUGGGCCAGGCAGGCAUCAAAAGAAAUAGUCUUGCGCCCAACCAGAAAGCCUGUAAUCAUUUUAAGGGUA [A23G U43G U108C U120C], 0.02.
Take GUUAACGGUCAUAGGCCAUGGAGACUAGGAGCACCAUUUCGCCGCCAGUGAAGUAAUGAACAAAGAAAAUCUGGGCCAGGCAGGCAUCAAAAGAAAUAGUCUUGCGCUCAACCAGAAAGUCUGUAAUCAUUUUAAGGGUA [A23G U43C A54U]: the self-cleavage was determined as 0.62.
For GUUAACGGUCAUAGGCCAUGGAGACUAGGAGCACCAUUUCGCAGCCAGUGAAGAAAUGAACAAAGAAAAUCUGGGCCAGGCAGGCAUCAAAAGAAAUAGUCUUGCGCUCAACCAGAAAGUCUGUAAUCAUUCUAAGGGUA [A23G U43A U132C] the value was 2.38; for GUUAACGGUCAUAGGCCAUGGAGACUAGGAGCACCAUUACGCUGCCAGUGAAGAAAUGAACAAAGAAAAUCUGGGCCAGGCAGGCAUCAAAAGAAAUAGUCUUGCGCUCAACCAGAAGGUCUGUAAUCAUUUUAAGGGUA [A23G U39A A118G], 0.81; for GUUAACGGUCAUAGGCCAUGGAGACUAGGAGCACCACUUAGCUGCCAGUGAAGAAAUGAACAAAGAAAAUCUGGGCCAGGCAGGCAUCAAAAGGAAUAGUCUUGCGCUCAACCAGAAAGUAUGUAAUCAUUUUAAGGGUA [A23G U37C C40A A94G C121A], 1.11.
Turning to GUUAACGGUCAUAGGCCAUGGAGACUAGGAGCACCAUCUCGCAGCCAGUGAAGAAAUGAACAAAGAAAAUCUGGGCCAGGCAGGCAUCGAAAGAAAUAGUCUUGCGCUCAACCAGAAAGUCUGUAACCAUUUUAAGGGUA [A23G U38C U43A A89G U127C], the self-cleavage was 0.93.
Regarding GUUAACGGUCAUAGGCCAUGGAGACUAGGAGCACCAUUUCGCCGCCAGUGAAGAAAUGAACAAAGAAAAUCUGGGCCAGGCAGGCAUCAAAGGAAAUAGUCUUGCGCUCAACCAGAAAGUCUGUAAUCAUUUUAAGGGUA [A23G U43C A92G], the self-cleavage came out at 0.71.
For GUUAACGGUCAUAGGCCAUGGAGACUAGGAGCACCAUUUCGCUGCCAGUGAAGAAAUGAACAAAGAAAAUCCGGGCCAGGCAGGCACCAAAAGAAAUAGUCUUGCGCUCAACCAGAAAGUCUGUAAUCAUUUCAAGGGUA [A23G U72C U87C U133C] the value was 0.64; for GUUAACGGUCAUAGGCCAUGGAGACUAGGAGCACCAUUUCGCAGCCAGUGAAGAAAUGAACAAAGAAAAUCUGGGCCAGGCAGGCAUCAAAAGAAAUAGUCUUGCGCACAACCAGAAAGUCUGUAAUCAUUUUAAGGGUA [A23G U43A U108A], 0.02; for GUUAACGGUCAUAGGCCAUGGAGACUAGGAGCACCAUUUCGCUGCCAGGGAAGGAAUGAACAAAGAAAAUCUGGGCCAGGCUGGCAUCAAAAGAAAUAGUCUUGCGCCCAACCAGAAAGUCCGUAAACAUUUUAAGGGUA [A23G U49G A54G A82U U108C U122C U127A], 0.03.
To GUUAACGGUCAUAGGCCAUGGAGACUAGGAGCACCAUUUCGCUGCCAGCGAAGAAAUGAACAAAGAAAAUCUGGGCCAGGCAGGCAUCAAAAGGAAUAGUCUUGCGCUCAACCAGAAAGUCUGUAGUCAUUUUAAGGGUA [A23G U49C A94G A126G] belongs 0.2; to GUUAACGGUCAUAGGCCAUGGAGACUAGGAGCACCACUUCGCUGCCAGUGAAGAAAUGAGCAAAGAAAAUCUGGGCCAGGCAGGCAUCAAAAGAAAUAGUCUUGCGCUCAACCAGAGAGUCUGUAGUCAUUUUAAGGGUA [A23G U37C A60G A117G A126G], 2.03; to GUUAACGGUCAUAGGCCAUGGAGACUAGGAGCACCACUUCGCUGCCAGUGAAGAAAUGAGCAAAGAAAAUCUGGGCCUGGCAGGCAUCAAAAGAAAUAGUCUUGCGCUCAACCAGUAAGUCUGUAAUCAUUUUAAGGGUA [A23G U37C A60G A78U A116U], 0.03.
To GUUAACGGUCAUAGGCCAUGGAGACCAGGAGCACCAUUUCGCUGCCAGUGAAGAAAUGAACAAAGAAAAUCUGGGCCAGGCAGGCAUCAAAAGAAAUAGUCUUGCGCUCAACCAGAAAGCCUGUAAUCACUCUAAGGGUA [A23G U26C U120C U130C U132C] belongs 0.71; to GUUAACGGUCAUAGGCCAUGGAGACUAGGAGCACCAUUUCGCUGCCAGUGAAGAAAUGAACAAAGAAAAUCCGGGCCGGGCAGGCAUCAAAGGAAAUAGUCUUGCGCUCAACCAGAAAGUCUGUAAUCAUUUUAAGGGUA [A23G U72C A78G A92G], 0.2.
For the variant GUUAACGGUCAUAGGCCAUGGAGACUAGGAGCACCAUUUCGCUGCCAGUGAAGAAAUGAACAAAGAAAACCUGGGCCAGGCAGGCAUCAAAAGAAAUAGUCUUGCGCCCAACCAGAAAGACUGUAAUCAUUUUAAGGGUA [A23G U70C U108C U120A], the self-cleavage turned out to be 0.05.
With GUUAACGGUCAUAGGCCAUGGAGACUAGGAGCACCACUUCGCUGCCAGCGAAGAAAUGAACAAAGAAAAUCUAGGCCAGGCAGGCAUCAAAAGAAAUAGUCUUGCGCUCAACCAGAAAGUCUGUAAUCAUUUUAAGGGUA [A23G U37C U49C G73A], the self-cleavage is 0.11.
To GUUAACGGUCAUAGGCCAUGGAGACUAGGAGCACCAUUCCGCUGUCAGUGAAGAAAUGAACAAAGAAAAUCUGGGCCAGGCAGGCAUCAAAAGAAAUAGUCUUGCGCUCAACCAGAAAGUCUGUAAUCAUUUUAAGGGUA [A23G U39C C45U] belongs 1.22; to GUUAACGGUCAUAGGCCAUGGAGACUAGGAGCACCAUCUCGCUGCCUGUGAAGAAAUGAACAAAGAAAAUCUGGGCCAGGCAGGCAUCAAAAGAAAUAGUCUUGCGCUCAACCAGAAAGUCUGUAAUCAUUUUAAGGGUA [A23G U38C A47U], 0.67.
